# Test results reported in PubChem BioAssay AID1508642 (National Center for Advancing Translational Sciences (NCATS), 2021).
# Out of some 43,000 compounds screened, about 200 (0.47%) were called active. Not shown: some 12% with an inconclusive outcome. Calls follow the shape of the dose curve; as a rule, active = well fitted cell-killing curve with a large enough effect; inconclusive = small, poorly fitted or top-dose-only effect, or effect the other way; inactive = flat fitted curve, though single readings scatter. The list shows a part of the results.
# Test: Cell viability qHTS assay in S16 Pmp22-F2sN cells; also: nearly all actives have a fitted effect of over 65% in size
# Details: S16 Pmp22-F2sN Schwann cells (luciferase reporters placed in the Pmp22 gene) viability, CellTiter-Glo, 24 h; series mostly up to 57.5 µM; activity change, negative = cytotoxicity: at the top concentration
# Outline: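 Luminescence from CellTiter-Glo, read by CCD camera after a 15 min room-temperature incubation, served as the viability signal. Reporter Schwann cells (S16 Pmp22-F2sN) had been treated with pin-transferred compounds for 24 h at 37C.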
# % is scaled to controls: 0 for no effect and ±100 for the full control effect.
row,SMILES,"activity change, negative = cytotoxicity"
1,CC(=O)c1ccc(N2CCN(C(=O)c3cc4cc5cc(C)ccc5nc4s3)CC2)cc1,inactive: 8.81%
2,COc1ccc(Cl)cc1NC(=O)c1cc2c(s1)-c1ccccc1OC2,inactive: -9.96%
3,COCCNC(=O)CCc1nc2cccnc2n1Cc1ccc(OC)cc1,inactive: -0.822%
4,COc1ccc(OC)c(NC(=O)CSc2cn(CC(=O)N3CCOCC3)c3ccccc23)c1,inactive: 23.1%
5,COc1cccc(C2C(C(=O)Nc3ccccc3)=C(C)Nc3nc(-c4ccccc4)nn32)c1 (centres undefined),inactive: 7.01%
6,Oc1c(Br)cc(Br)cc1-c1nc2ccccc2s1,inactive: -2.84%
7,CS(=O)(=O)N(CC(=O)NCCSc1ccccc1)c1cc(C(F)(F)F)ccc1Cl,inactive: 10.3%
8,COc1ccc(C2C=C(c3ccccc3)Nc3nc(NS(=O)(=O)c4ccc(Cl)cc4)nn32)cc1 (centres undefined),inactive: 5.06%
9,O=C(Cn1c(=O)n(CC2CCC(C(=O)NCCc3ccccc3)CC2)c(=O)c2ccccc21)Nc1cccc(F)c1 (centres undefined),inactive: 9.05%
10,CC(=O)c1cc2c(cc1N/C(=N/S(=O)(=O)c1ccc(Br)cc1)c1ccccc1)OCO2,inactive: -17.9%
11,COc1ccc(C(=O)Cn2c(=O)c(-c3cc(C)ccc3NC(C)=O)nc3ccccc32)cc1,inactive: 7.29%
12,O=C(COc1ccccc1)NC1CC(=O)N(c2ccc3c(c2)OCCO3)C1 (centres undefined),inactive: 2.69%
13,COC(=O)c1ccccc1NC(=O)N1CCc2c(sc3c2CCCC3)C1c1ccc(F)cc1 (centres undefined),inactive: 23%
14,CCOc1ccccc1NC(=O)Cn1c(=O)n(-c2cccc(C)c2)c(=O)c2c1c1cc(OC)ccc1n2C,inactive: 0.853%
15,CCOc1ccc(C(=O)c2cn(CC(=O)Nc3ccc(Cl)cc3)c3cc4c(cc3c2=O)OCCO4)cc1,inactive: -6.17%
16,Cc1ccc(C)c(N2CCN(C(=O)c3noc4c3CCCCC4)CC2)c1,inactive: -7.54%
17,Cc1ccccc1Cn1c(CN2CCCC(C)C2)nc2c1c(=O)n(C)c(=O)n2C (centres undefined),inactive: 2.88%
18,COc1ccc(OC)c(NC(=O)c2cnn(-c3ccc(C)cc3)c2C2CCNCC2)c1,inactive: -11%
19,CCc1ccccc1N(C)C(=O)c1cc2c(=O)oc3ccccc3c2s1,inactive: -0.913%
20,CC(C)n1c(=N)c(C(=O)NCc2ccccc2)cc2c(=O)n3ccccc3nc21,inactive: 1.97%
21,COc1cc(NC(=O)c2cc(S(=O)(=O)N3CCc4ccccc43)cn2C)cc(OC)c1OC,inactive: -2.52%
22,Cc1ccc(C)c(CN2C(=O)c3ccccc3S(=O)(=O)c3ccc(C(=O)N4CCCCC4)cc32)c1,inactive: -1.43%
23,COc1cc2c(=O)n(CCc3ccccc3)c(=O)n(CC(=O)Nc3ccccc3)c2cc1OC,inactive: 1.46%
24,O=C(COc1ccccc1[N+](=O)[O-])N(Cc1ccco1)c1ccccn1,inactive: -5.02%

row,SMILES,"activity change, negative = cytotoxicity"
1,O=C(C1CCC1)N1CCc2cc(S(=O)(=O)NCc3ccc(F)cc3)ccc21,inactive: -14.8%
2,COc1ccc(C)cc1NC(=O)N1CCCn2nc(C)cc21,inactive: -1.63%
3,CC(C)CC(=O)Nc1c(C(=O)N2CCN(c3ccccc3)CC2)oc2ccccc12,inactive: -0.599%
4,CCCN(C(=O)c1coc(=O)c2ccccc12)c1ccccc1C,inactive: 0.428%
5,CCc1ccc(OCC2c3cc(OC)c(OC)cc3CCN2C(=O)COc2ccccc2)cc1 (centres undefined),inactive: -1.07%
6,CCCN(CCC)C(=O)c1c2c(nc3ccccc13)C(=O)N(C1CCCCC1)C2,inactive: 6.36%
7,COc1ccc(-n2nc(C(=O)Nc3cccc(C)n3)c3c4ccccc4n(C)c3c2=O)cc1Cl,inactive: 1.61%
8,CCOc1ccc(CCNC(=O)CCc2cn(Cc3ccc(F)cc3)c3ccccc23)cc1,inactive: 8.87%
9,COc1cccc(NC(=O)C(Cc2ccccc2)NS(=O)(=O)c2ccc3c(c2)oc(=O)n3C)c1 (centres undefined),inactive: -23.1%
10,Cc1coc2cc3oc(=O)c(CC(=O)NCCc4ccccc4)c(C)c3cc12,inactive: 16.7%
11,CCOc1ccc(NC(=O)Cn2cc(C(=O)c3ccco3)c3ccccc32)cc1,inactive: 8.14%
12,CCOc1ccc(CCNC(=O)c2cc3c(-c4ccc(OC)c(OC)c4)nn(C)c3s2)cc1OCC,inactive: -21.6%
13,CCn1c(=O)cc(OCC(=O)Nc2cc(Cl)c(OC)cc2OC)c2ccccc21,inactive: -4.44%
14,Cc1ccc(N2C(=O)CSC23C(=O)N(CC(=O)Nc2ccc(C(C)C)cc2)c2ccccc23)cc1C (centres undefined),inactive: -27.3%
15,Cc1cccc(N2CCN(S(=O)(=O)c3cc(C(=O)Nc4ccccc4Cl)ccc3F)CC2)c1C,inactive: -28.4%
16,CCc1ccccc1NC(=O)CSc1nnc2ccc3ccccc3n12,inactive: -9.37%
17,COC(=O)c1cc2oc3ccccc3c2n1Cc1nc(-c2ccccc2C)oc1C,inactive: -1.9%
18,CCC(C)NC(=O)CCc1c(C)nc2nc(-c3cc(OC)cc(OC)c3)nn2c1C (centres undefined),inactive: 3.6%
19,Cc1ccc(NC(=O)[C@@H](c2ccccc2)N2Cc3ccccc3C2=O)cc1,inactive: -2.21%
20,Cc1ccc2[nH]c(CSc3nnc(NC(=O)c4ccc(Cl)cc4)s3)cc(=O)c2c1,inactive: 13.7%
21,COc1ccc(OC)c(CCNc2nc3ccccc3c3nc(-c4cccnc4)nn23)c1,inactive: 2.25%
22,Brc1ccc(-n2nc(-c3ccccc3)c3cnc4cc5c(cc4c32)OCO5)cc1,inactive: 0.911%
23,Cc1c(C(=O)Nc2cccc(Cl)c2)oc2ccc(S(=O)(=O)N(C)C3CCCCC3)cc12,inactive: 1.07%
24,COc1cccc(NC(=O)Cn2c(=O)n(-c3ccc(C)cc3)c(=O)c3ccc(C(=O)NCc4ccco4)cc32)c1,inactive: -11.4%

row,SMILES,"activity change, negative = cytotoxicity"
1,Cc1nc2ncnn2c(C)c1CCC(=O)NCc1ccccc1Cl,inactive: 3.56%
2,CCOc1ccccc1N(CC(=O)N1CCc2ccccc2C1)S(=O)(=O)c1ccccc1,inactive: -12.3%
3,CCc1ccc(-c2nc(CS(=O)CC(=O)NCCc3ccc(Cl)cc3)c(C)o2)cc1 (centres undefined),inactive: 5.88%
4,O=C1CCSC2(C(=O)N(Cc3ccc(F)cc3)c3ccccc32)N1c1ccc(F)c(F)c1 (centres undefined),inactive: 10.8%
5,CCNC(=O)CC1C(=O)N(c2cccc(OC)c2)C(=O)N1Cc1ccc(OC)c(OC)c1 (centres undefined),inactive: 0.748%
6,CCOc1ccc2oc(=O)cc(CN3CCN(C(=O)c4ccc(F)cc4)CC3)c2c1,inactive: -9.27%
7,COCCn1c(=N)c(C(=O)NC(C)c2ccccc2)cc2c(=O)n3cc(C)ccc3nc21 (centres undefined),inactive: 1.7%
8,CCOCc1ccccc1Nc1ncnc2onc(-c3ccc(Cl)cc3)c12,inactive: 25.4%
9,CCc1cccc(NC(=O)C(c2ccccc2)N2Cc3ccccc3C2=O)c1 (centres undefined),inactive: -0.408%
10,CCC(Sc1nncn2c1cc1oc(C)cc12)C(=O)Nc1ccc(F)cc1 (centres undefined),inactive: 0.205%
11,CCOc1ccccc1NC(=O)CCn1nc(C)c(S(=O)(=O)N2CCCCC2)c1C,inactive: 3.91%
12,COc1ccc(C2C=C(c3ccccc3)Nc3nc(NC(=O)/C=C/c4ccccc4)nn32)cc1 (centres undefined),inactive: -1.2%
13,O=C(NCCCc1ccccc1)C1CCN(C(=O)N2CCOc3ccc(Cl)cc32)CC1,inactive: -17.5%
14,O=C(Cn1ncc2c3ccccc3n(Cc3cccc(Cl)c3)c2c1=O)NC1CCCCCC1,inactive: 2.51%
15,CCc1ccc(NC(=O)CSC2=Nc3ccccc3C3=NC(CC(=O)NCc4ccccc4)C(=O)N23)cc1 (centres undefined),inactive: 2.87%
16,CCN1CCSc2ccc(C(=O)NCc3ccc(OC)cc3)cc21,inactive: 1.19%
17,COC(=O)CCN(c1ccccc1)S(=O)(=O)c1cc(-c2cc(C)no2)ccc1OC,inactive: 2.5%
18,CCN(CC)S(=O)(=O)c1ccc2c(c1)c(=O)c(C(=O)N1CCN(c3ccc(F)cc3)CC1)cn2C,inactive: 1.87%
19,Fc1ccc(-c2noc3ncnc(NC4CCCCC4)c23)cc1,inactive: -7.19%
20,Cc1c2cnn(CC(=O)NCCc3ccccc3)c(=O)c2c(C)n1Cc1ccccc1,inactive: 0.822%
21,COc1cc(NC(=O)CSc2ncc(S(=O)(=O)c3ccc(Br)cc3)c(=O)[nH]2)cc(OC)c1,inactive: -7.44%
22,Cc1cccc(NC(=O)C(=O)NCC(c2ccc3c(c2)OCO3)N2CCN(C)CC2)c1C (centres undefined),inactive: -11.7%
23,COc1ccc(OC)c(NC(=O)c2cccn2-c2nnc(N3CCCCC3)s2)c1,inactive: 3.11%
24,COc1ccc(CNC(=O)c2cc3c(=O)oc4ccc(C)cc4c3s2)c(OC)c1,inactive: 7.64%

row,SMILES,"activity change, negative = cytotoxicity"
1,COc1ccc(CNC(=O)c2ccc(NC(=O)N3CCCCc4ccccc43)cc2)cc1,inactive: 6.62%
2,CCN(CC)S(=O)(=O)c1ccc2oc(C(=O)N(C)Cc3ccccc3)c(C)c2c1,inactive: 3.7%
3,CCCCOc1cccc(C(=O)N(Cc2sccc2C)C2CCS(=O)(=O)C2)c1 (centres undefined),inactive: -13.9%
4,Cc1cc(Nc2cccc(Cl)c2)nc2ccc(NC(=O)Cc3cccc(C(F)(F)F)c3)cc12,inactive: -27.4%
5,COc1ccc(Cn2c(=O)c3oc4ccccc4c3n(Cc3ccc(F)cc3)c2=O)cc1,inactive: -0.491%
6,Cc1cccc(N2CCN(C(=O)CCCCn3c(=O)[nH]c4ccsc4c3=O)CC2)c1C,inactive: -24.5%
7,CCN(CC)S(=O)(=O)c1ccc2c(c1)N(CC(=O)N1CCN(c3ccc(F)cc3)CC1)C(=O)CO2,inactive: -1.85%
8,Cc1ccc(C)c(-c2[nH]c3c(c2-c2c(-n4cccc4)n(C)c(=O)[nH]c2=O)c(=O)[nH]c(=O)n3C)c1,inactive: 3.67%
9,Cc1ccc(-c2nc(CCNC(=O)C(=O)Nc3ccc(C)cc3C)cs2)cc1,inactive: -10.7%
10,CCOc1ccc(CCNC(=O)Cn2nc(-c3ccc(C)cc3)ccc2=O)cc1OCC,inactive: 3.72%
11,COc1ccc(CNC(=O)c2ccc(CS(=O)(=O)c3ccccc3OC)o2)cc1,inactive: -0.187%
12,O=C(CNS(=O)(=O)c1cccs1)N1CCN(c2cccc(C(F)(F)F)c2)CC1,inactive: -9.4%
13,COc1cc(CN2CCN(S(=O)(=O)c3ccccc3)CC2)cc(OC)c1O,inactive: 8.36%
14,CCc1ccccc1NC(=O)C1=C(C)C(=O)OC12CCCCCC2,inactive: -2.68%
15,COC(=O)c1ccc(CSc2nc3c([nH]c4ccccc43)c(=O)n2-c2ccc(Cl)cc2)o1,inactive: 3.02%
16,Nc1nnc2c(n1)[nH]c1ccccc12,inactive: -2.06%
17,COc1cccc(CSc2nc3cc(C(=O)NC4CCCC4)ccc3c(=O)n2Cc2ccccc2)c1,inactive: 4.6%
18,CCCC(=O)N(c1ccc2oc3c(c2c1)CCCC3)S(=O)(=O)c1cc(C)ccc1C,inactive: -0.872%
19,O=C1CC(c2nc3ccccc3[nH]2)CN1c1cccc(Cl)c1 (centres undefined),inactive: 1.45%
20,Cc1cc(Cl)ccc1NC(=O)c1cc(S(=O)(=O)N2CCOCC2)cn1C,inactive: 7.84%
21,O=C(CSc1nc2ccccc2n1Cc1ccccc1)N1CCN(c2ccc(F)cc2)CC1,inactive: -4.22%
22,COc1ccc(-n2cc(C(=O)NCc3ccccc3)c3ccccc3c2=O)cc1,inactive: -1.81%
